Assay results from paper PMC4336329 (PLoS ONE, 2015).
Screen size: about 310,000 compounds; about 2,200 (0.71%) showed an effect of 50% or more. The effect is printed as a negative number. The list shows a part of the results.

The compounds below were run against human ether-à-go-go-related gene (hERG) potassium channel (human, UniProt Q12809) (assay: primary screen, population patch clamp on CHO cells stably expressing hERG).
Chain of human ether-à-go-go-related gene (hERG) potassium channel (Q12809 whole entry, looked up): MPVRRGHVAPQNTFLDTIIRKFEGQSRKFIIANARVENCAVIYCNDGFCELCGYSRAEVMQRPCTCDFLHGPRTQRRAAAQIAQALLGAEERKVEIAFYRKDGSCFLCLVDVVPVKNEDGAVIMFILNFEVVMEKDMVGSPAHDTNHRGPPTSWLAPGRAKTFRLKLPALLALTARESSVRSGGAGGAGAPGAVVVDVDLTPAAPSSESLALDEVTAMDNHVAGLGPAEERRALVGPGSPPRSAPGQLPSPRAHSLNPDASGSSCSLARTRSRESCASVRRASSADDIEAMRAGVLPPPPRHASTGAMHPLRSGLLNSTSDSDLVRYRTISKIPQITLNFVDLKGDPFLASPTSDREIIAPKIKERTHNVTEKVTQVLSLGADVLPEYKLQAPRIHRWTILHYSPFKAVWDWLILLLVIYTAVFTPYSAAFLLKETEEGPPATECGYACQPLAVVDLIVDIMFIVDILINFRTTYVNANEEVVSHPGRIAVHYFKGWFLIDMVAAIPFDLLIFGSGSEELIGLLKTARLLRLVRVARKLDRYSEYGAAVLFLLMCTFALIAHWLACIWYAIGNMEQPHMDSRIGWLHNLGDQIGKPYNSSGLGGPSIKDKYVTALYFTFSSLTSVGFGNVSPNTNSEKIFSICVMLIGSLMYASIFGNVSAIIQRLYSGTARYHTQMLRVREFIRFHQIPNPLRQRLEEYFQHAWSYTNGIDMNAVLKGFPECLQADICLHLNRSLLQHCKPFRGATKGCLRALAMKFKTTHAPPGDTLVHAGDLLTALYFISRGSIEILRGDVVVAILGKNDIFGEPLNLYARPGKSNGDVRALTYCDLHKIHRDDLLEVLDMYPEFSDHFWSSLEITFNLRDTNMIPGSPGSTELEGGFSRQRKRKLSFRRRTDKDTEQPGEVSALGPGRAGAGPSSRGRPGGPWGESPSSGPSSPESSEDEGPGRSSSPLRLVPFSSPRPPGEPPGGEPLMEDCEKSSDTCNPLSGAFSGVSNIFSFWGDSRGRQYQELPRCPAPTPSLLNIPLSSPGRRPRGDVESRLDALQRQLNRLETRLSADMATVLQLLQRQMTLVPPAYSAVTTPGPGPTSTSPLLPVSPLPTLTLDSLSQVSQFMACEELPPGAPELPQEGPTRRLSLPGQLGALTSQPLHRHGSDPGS

Question: For CC(C)(C)OC(=O)N[C@@H](COCc1ccccc1)C(=O)N[C@@H](CO)[C@H](O)[C@@H]1C[C@@H]1C(=O)NC1CCCCC1, which “hERG current change (%, negative = inhibition) at 1uM” value is on record?
Answer: 16.9%

Question: With CC(C)CN(C(=O)CN1CCc2ccccc21)c1c(N)n(CC(C)C)c(=O)[nH]c1=O as the compound, how does the “hERG current change (%, negative = inhibition) at 1uM” value read?
Answer: 7.84%

Question: How did the “hERG current change (%, negative = inhibition) at 1uM” value turn out when CN1CCN(S(=O)(=O)c2cccc(C(=O)Nc3cccc(S(N)(=O)=O)c3)c2)CC1 was run?
Answer: 19.9%

Question: How did the “hERG current change (%, negative = inhibition) at 1uM” value turn out when NCC(O)COc1ccc2c(c1)OCO2 (stereo not shown) was run?
Answer: 7.71%

Question: CCCCn1ccnc1C(=O)c1ccc(S(=O)(=O)N2CCCC2)cc1 was tested. Which “hERG current change (%, negative = inhibition) at 1uM” value did it give?
Answer: 10.7%

Question: O=C(c1cc(-c2cccc(Cl)c2)on1)N1CCN(c2ccc(F)cc2)CC1 was tested. Which “hERG current change (%, negative = inhibition) at 1uM” value did it give?
Answer: 7.74%

Question: COc1ccc(CCN2CC(C(=O)NCC3(O)CCCCC3)CCC2=O)cc1 (stereo not shown) was tested. Which “hERG current change (%, negative = inhibition) at 1uM” value did it give?
Answer: 17.2%

Question: O=C(COC(=O)c1ccccc1F)NC(=O)NC1CCCC1 was tested. Which “hERG current change (%, negative = inhibition) at 1uM” value did it give?
Answer: 13.7%

Question: How did the “hERG current change (%, negative = inhibition) at 1uM” value turn out when CC/C(=C\C1CCCCC1)C(NP(=O)(c1ccccc1)c1ccccc1)c1ccccc1 (stereo not shown) was run?
Answer: 12.8%

Question: Which “hERG current change (%, negative = inhibition) at 1uM” value does the source give for Cc1cc(NC(=O)CSc2nccn2C)no1 here?
Answer: 2.28%

Question: How did the “hERG current change (%, negative = inhibition) at 1uM” value turn out when COCCn1c(SCC(=O)NNC(=O)c2ccccc2)nc2ccccc2c1=O was run?
Answer: 6.09%

Question: O=C(CCC1CCCCC1)Nc1cc(C(F)(F)F)ccc1N1CCOCC1 was tested. Which “hERG current change (%, negative = inhibition) at 1uM” value did it give?
Answer: 11.8%

Question: For CCn1c(CC(=O)Nc2cccc(OC)c2)nnc1SCC(=O)N1CCN(c2ccccc2)CC1, which “hERG current change (%, negative = inhibition) at 1uM” value is on record?
Answer: 12%

Question: With CCOc1ccc(NC(=O)CCC(=O)N/N=C/c2ccc([N+](=O)[O-])s2)cc1 as the compound, how does the “hERG current change (%, negative = inhibition) at 1uM” value read?
Answer: -4%

Question: For COCCNC(=O)c1ccc(CS(=O)(=O)c2c(Cl)cccc2Cl)o1, which “hERG current change (%, negative = inhibition) at 1uM” value is on record?
Answer: 2.14%

Question: How did the “hERG current change (%, negative = inhibition) at 1uM” value turn out when COc1ccc(C(=O)NCC(=O)N/N=C(\C)c2ccco2)cc1OC was run?
Answer: 18.9%

Question: With COC(=O)c1cccc(NC(=O)Cc2ccsc2)c1 as the compound, how does the “hERG current change (%, negative = inhibition) at 1uM” value read?
Answer: -2.46%

Question: With Cc1ccc(-n2nc3c(c2NC(=O)c2ccccc2Br)CS(=O)C3)cc1 (stereo not shown) as the compound, how does the “hERG current change (%, negative = inhibition) at 1uM” value read?
Answer: 20.2%

Question: How did the “hERG current change (%, negative = inhibition) at 1uM” value turn out when Cc1cccc(CNC(=O)c2ccccc2NC(=O)C2=CSCCO2)c1 was run?
Answer: 15.3%

Question: Which “hERG current change (%, negative = inhibition) at 1uM” value does the source give for CC1CCN(C(=O)COC(=O)c2cn(C)c3ccccc23)CC1 here?
Answer: 7.49%

Question: With NC(=S)Cc1nc(-c2ccccc2)cs1 as the compound, how does the “hERG current change (%, negative = inhibition) at 1uM” value read?
Answer: 8.89%

Question: For O=C(NCc1cccnc1)c1ccc(-c2ccccc2[N+](=O)[O-])o1, which “hERG current change (%, negative = inhibition) at 1uM” value is on record?
Answer: -0.14%

Question: Cc1sc2ncn(CCn3cnc4sc(C)c(C)c4c3=O)c(=O)c2c1C was tested. Which “hERG current change (%, negative = inhibition) at 1uM” value did it give?
Answer: 10.3%

Question: For COc1ccc(NC(=O)CSc2nnc(-c3cccs3)n2N)c(OC)c1, which “hERG current change (%, negative = inhibition) at 1uM” value is on record?
Answer: 10.2%

Question: Which “hERG current change (%, negative = inhibition) at 1uM” value does the source give for O=C(O)c1cccc(-n2cccc2/C=N/O)c1 here?
Answer: 17.2%

Question: For CN(CC(=O)N1CCCC1)S(=O)(=O)c1ccc(Cl)cc1, which “hERG current change (%, negative = inhibition) at 1uM” value is on record?
Answer: -7.18%

Question: Which “hERG current change (%, negative = inhibition) at 1uM” value does the source give for C=CCN1C(=NC(=O)CC)SC2CS(=O)(=O)CC21 (stereo not shown) here?
Answer: 20.1%

Question: With NC(=O)C1CCCN(S(=O)(=O)c2ccc(Br)cc2)C1 (stereo not shown) as the compound, how does the “hERG current change (%, negative = inhibition) at 1uM” value read?
Answer: 2.8%

Question: Which “hERG current change (%, negative = inhibition) at 1uM” value does the source give for COc1ccc(Cn2c(O)c(C=NCCN3CCOCC3)c(=O)[nH]c2=O)cc1 here?
Answer: -7.45%

Question: With Cc1cccc(-n2cc(C(=O)O)c(=O)cc2C)c1 as the compound, how does the “hERG current change (%, negative = inhibition) at 1uM” value read?
Answer: 8.4%

Question: With CC(C(=O)c1ccc(Br)cc1)[n+]1cccc2ccccc21.[Br-] (stereo not shown) as the compound, how does the “hERG current change (%, negative = inhibition) at 1uM” value read?
Answer: 3.94%

Question: Which “hERG current change (%, negative = inhibition) at 1uM” value does the source give for O=C(c1ccccn1)N1CCCC(N2CCN(c3ccccc3)CC2)C1 (stereo not shown) here?
Answer: 10.2%

Question: Which “hERG current change (%, negative = inhibition) at 1uM” value does the source give for Cc1ccccc1NC(=O)c1ccccc1O here?
Answer: 19.5%

Question: For COc1ccc(C)cc1C(=O)C1CC(C(=O)O)C(C)(C)C1C (stereo not shown), which “hERG current change (%, negative = inhibition) at 1uM” value is on record?
Answer: 6.86%

Question: For CC1CN(S(=O)(=O)c2cccc(C(=O)OCCOc3ccccc3)c2)CC(C)O1 (stereo not shown), which “hERG current change (%, negative = inhibition) at 1uM” value is on record?
Answer: 4.89%

Question: Which “hERG current change (%, negative = inhibition) at 1uM” value does the source give for CC(C)(C)N/N=C/c1cc(Cl)cc([N+](=O)[O-])c1O.Cl here?
Answer: 7.41%

Question: With O=C(CN1C(=O)c2ccccc2C1=O)OCC(=O)c1ccc(F)cc1 as the compound, how does the “hERG current change (%, negative = inhibition) at 1uM” value read?
Answer: 7.25%

Question: Which “hERG current change (%, negative = inhibition) at 1uM” value does the source give for CC(C)Cc1cc(C(=O)Nc2ccc3c(c2)OCO3)no1 here?
Answer: 7.48%

Question: Which “hERG current change (%, negative = inhibition) at 1uM” value does the source give for Cc1cccn2cc(-c3cccc(NC(=O)c4cccs4)c3)nc12 here?
Answer: 2.83%

Question: Cc1cc(C)cc(N2CCCn3c2nc2c3c(=O)[nH]c(=O)n2C)c1 was tested. Which “hERG current change (%, negative = inhibition) at 1uM” value did it give?
Answer: 11.8%

Question: O=C(Nc1ccc2oc(-c3cccnc3)nc2c1)c1ccc2c(c1)OCCO2 was tested. Which “hERG current change (%, negative = inhibition) at 1uM” value did it give?
Answer: 21.6%

Question: How did the “hERG current change (%, negative = inhibition) at 1uM” value turn out when CCCCN(CCCC)C(=O)/C=C/c1cccc([N+](=O)[O-])c1 was run?
Answer: -27.2%

Question: With CCc1ccc(OCC(=O)Nc2ccncc2)cc1 as the compound, how does the “hERG current change (%, negative = inhibition) at 1uM” value read?
Answer: 12.4%

Question: CCN(CC)c1ccc(/C=N/NC(=O)Nc2ccccc2)cc1 was tested. Which “hERG current change (%, negative = inhibition) at 1uM” value did it give?
Answer: 9.97%

Question: For CCOC(CNC(=O)c1cccn2c(=O)c3c(C)c(C)sc3nc12)OCC, which “hERG current change (%, negative = inhibition) at 1uM” value is on record?
Answer: -21.5%

Question: With COc1ccc(CNC(=O)C2CC(c3ccccc3[N+](=O)[O-])=NO2)cc1 (stereo not shown) as the compound, how does the “hERG current change (%, negative = inhibition) at 1uM” value read?
Answer: -3.45%

Question: Cc1ccc(OCc2nc(C#N)c(NCc3ccc4c(c3)OCO4)o2)cc1 was tested. Which “hERG current change (%, negative = inhibition) at 1uM” value did it give?
Answer: 5.63%

Question: How did the “hERG current change (%, negative = inhibition) at 1uM” value turn out when Cc1cc(C)c(S(=O)(=O)N2CCCC(C(=O)NCc3ccccn3)C2)c(C)c1 (stereo not shown) was run?
Answer: 7.3%

Question: COC(=O)c1cc2ccccc2n1S(=O)(=O)c1ccccc1 was tested. Which “hERG current change (%, negative = inhibition) at 1uM” value did it give?
Answer: 8.3%

Question: Which “hERG current change (%, negative = inhibition) at 1uM” value does the source give for CCOc1ccc(/C=C/C(=O)c2c(O)c3ccccc3oc2=O)cc1 here?
Answer: 2.24%

Question: Which “hERG current change (%, negative = inhibition) at 1uM” value does the source give for CCCOP(=O)(c1ccc(N(C)C)cc1)C(O)c1ccc(Cl)cc1 (stereo not shown) here?
Answer: 14.9%

Question: How did the “hERG current change (%, negative = inhibition) at 1uM” value turn out when OCCC1CN(Cc2cccc(OC3CCCC3)c2)CCN1Cc1ccsc1 (stereo not shown) was run?
Answer: -15.4%

Question: For CC(C)(Oc1ccc(-c2ccco2)cc1)C(=O)O, which “hERG current change (%, negative = inhibition) at 1uM” value is on record?
Answer: 8.94%

Question: With CC(C)CNS(=O)(=O)c1ccc2c(c1)OCCO2 as the compound, how does the “hERG current change (%, negative = inhibition) at 1uM” value read?
Answer: -4.22%

Question: How did the “hERG current change (%, negative = inhibition) at 1uM” value turn out when O=C(O)CCn1c(C(=O)O)cc2sccc21 was run?
Answer: 15.2%

Question: N#CCC(=O)N1CCN(Cc2ccc3c(c2)OCO3)CC1 was tested. Which “hERG current change (%, negative = inhibition) at 1uM” value did it give?
Answer: 9.55%

Question: Which “hERG current change (%, negative = inhibition) at 1uM” value does the source give for Cc1oc2c(CN3CCCC3)c(O)ccc2c(=O)c1-c1ccccc1 here?
Answer: -11.7%

Question: Which “hERG current change (%, negative = inhibition) at 1uM” value does the source give for O=C(Cc1cccs1)Nc1cccc(-c2nnc(-c3ccco3)o2)c1 here?
Answer: 14.5%
